Each structure is given as a SMILES string. The list shows a part of the results.

This assay relates to HSkMC (human skeletal muscle cells). The assay is described as follows: cytotoxicity call (relative viability < 0.9). As to conditions: 10 µM.
On to `Cc1ccc(S(=O)(=O)Nc2ccc3c(c2)C(=O)N([C@@H](C)CO)C[C@H](C)[C@H](CN(C)C(=O)CCC(F)(F)F)OCCCC[C@H](C)O3)cc1`, for which the cytotoxicity call was “inactive”.

For `CNC(=O)C[C@@H]1CC[C@@H]2[C@H](COC[C@@H](O)CN2C(=O)c2ccc3c(c2)OCO3)O1`, the cytotoxicity call was “inactive”.

`N[C@H](c1ccc2c(c1)OCCO2)c1ccco1`: the cytotoxicity call is “inactive”.

On to `O=C1NC(=O)/C(=C\c2ccccc2)N1`, for which the cytotoxicity call is “inactive”.

Regarding `O=c1[nH]cc(Nc2ccccc2)c(=O)[nH]1`, the cytotoxicity call is “inactive”.

For the molecule `C[C@H]1CC/C=C\[C@H]2O[C@@]34C=CCN(Cn5nnc6ccccc65)C(=O)[C@H]3N(CCCO)C(=O)[C@@H]4[C@@H]2C(=O)O1`, the cytotoxicity call was “inactive”.

Turning to `C[C@H](CO)N1C[C@H](C)[C@H](CN(C)Cc2ccncc2)Oc2ccc(NS(=O)(=O)c3cn(C)cn3)cc2CC1=O`, the cytotoxicity call was “inactive”.

With `C[C@@H]1CN([C@@H](C)CO)C(=O)c2cc(NC(=O)Nc3ccccc3)ccc2O[C@@H](C)CCCCO[C@H]1CN(C)Cc1ccccc1`, the cytotoxicity call was “inactive”.

For `C[C@@H]1CN([C@@H](C)CO)C(=O)Cc2cc(N(C)C)ccc2O[C@H]1CN(C)S(=O)(=O)c1ccc(Cl)cc1`, the cytotoxicity call was “inactive”.

With `C[C@@H]1CN([C@H](C)CO)C(=O)c2cc(NC(=O)Nc3cccc4ccccc34)ccc2O[C@@H]1CN(C)Cc1ccc(Cl)c(Cl)c1`, the cytotoxicity call is “inactive”.

On to `C[C@@H]1CN([C@@H](C)CO)S(=O)(=O)c2ccc(C#CCN(C)C)cc2O[C@H]1CN(C)C`, for which the cytotoxicity call was “inactive”.

As to `O=C(OC1Cc2c(O)cc(O)cc2OC1c1cc(O)c(=O)c2c(O)c(O)cc(C3Oc4cc(O)cc(O)c4CC3O)c2c1)c1cc(O)c(O)c(O)c1` (stereo unspecified), the cytotoxicity call was “inactive”.

Regarding `C[C@H]1CN([C@@H](C)CO)C(=O)c2cc(NS(=O)(=O)c3ccc(Cl)cc3)ccc2O[C@@H]1CN(C)C(=O)Nc1ccc(C(F)(F)F)cc1`, the cytotoxicity call is “inactive”.

Turning to `C[C@H]1CCCCO[C@H](CN(C)C(=O)C2CCCCC2)[C@@H](C)CN([C@@H](C)CO)C(=O)c2cc(NC(=O)NC3CCCCC3)ccc2O1`, the cytotoxicity call is “inactive”.

Consider `COCC(=O)Nc1ccc2c(c1)C(=O)N(C)C[C@@H](OC)[C@@H](C)CN(Cc1ccccc1OC)[C@H](C)CO2`, for which the cytotoxicity call was “inactive”.

For the molecule `O=C(C[C@H]1CC[C@H]2[C@@H](COC[C@@H](O)CN2Cc2cc(F)ccc2F)O1)N[C@@H]1CCN(Cc2ccccc2)C1`, the cytotoxicity call was “inactive”.

Turning to `C[C@@H]1CCCCO[C@@H](CN(C)Cc2ccc(Cl)c(Cl)c2)[C@H](C)CN([C@H](C)CO)C(=O)c2cc(NC(=O)c3ccccc3)ccc2O1`, the cytotoxicity call was “active”.

Turning to `Cc1cccc(C(=O)O)c1O`, the cytotoxicity call was “inactive”.

`Cc1cc(-c2cc[nH]n2)c(C)s1`: the cytotoxicity call was “inactive”.

Consider `Cc1cccc(NC(=O)Nc2ccc3c(c2)C(=O)N(C)[C@H]2CC[C@H](CC(=O)NCc4ccccc4Cl)O[C@H]2CO3)c1`, for which the cytotoxicity call was “inactive”.

For `C[C@@H]1CN([C@H](C)CO)C(=O)c2cc(Br)cnc2O[C@H]1CN(C)C(=O)Nc1ccccc1F`, the cytotoxicity call was “inactive”.

As for `C[C@@H]1CCCCO[C@H](CN(C)Cc2ccc(C(F)(F)F)cc2)[C@@H](C)CN([C@H](C)CO)C(=O)c2cc(NS(C)(=O)=O)ccc2O1`, the cytotoxicity call is “inactive”.

Consider `C[C@@H]1CN([C@@H](C)CO)C(=O)c2cc(C#CCN(C)C)cnc2O[C@H]1CN(C)Cc1ccc(C(=O)O)cc1`, for which the cytotoxicity call is “inactive”.

For the molecule `CO[C@H]1O[C@H](COC(=O)NCCCCCC(=O)NO)[C@H](OC(=O)Nc2ccccc2)[C@H](OC(=O)Nc2ccccc2)[C@H]1OC(=O)Nc1ccccc1`, the cytotoxicity call was “inactive”.

As for `COc1ccc(CN(C)C[C@@H]2Oc3c(NS(=O)(=O)c4cn(C)cn4)cccc3C(=O)N([C@@H](C)CO)C[C@@H]2C)cc1`, the cytotoxicity call is “inactive”.

`O=C(C[C@@H]1C[C@H]2c3cc(NC(=O)c4ccc5c(c4)OCO5)ccc3O[C@H]2[C@H](CO)O1)NCCN1CCCCC1`: the cytotoxicity call is “inactive”.

For `OCc1cc(O)c2c(O)c3c(O)cccc3c(O[C@@H]3O[C@H](CO)[C@H](O)[C@@H](O)[C@H]3O)c2c1`, the cytotoxicity call was “inactive”.

Take `Cc1ccc(S(=O)(=O)Nc2ccc3c(c2)C(=O)N([C@H](C)CO)C[C@@H](C)[C@@H](CN(C)C(=O)c2ccccc2)OCCCC[C@@H](C)O3)cc1`: the cytotoxicity call was “inactive”.

In the case of `COc1ccc(NC(=O)N(C)C[C@H]2OCCCC[C@H](C)Oc3ccc(NS(=O)(=O)c4ccc(OC)cc4)cc3C(=O)N([C@H](C)CO)C[C@@H]2C)cc1`, the cytotoxicity call is “inactive”.

For `CCCC#Cc1ccc2c(c1)O[C@@H](CN(C)S(=O)(=O)c1cccc(OC)c1)[C@H](C)CN([C@@H](C)CO)S2(=O)=O`, the cytotoxicity call is “inactive”.

Turning to `O[C@H]1[C@H](O)[C@@H](O)[C@H]2O[C@@H]2[C@@H]1O`, the cytotoxicity call is “inactive”.

The values are drawn from the antibiotic and cytotoxicity screens of Wong et al. (2023).
